# The whole screen tested about 150,000 compounds, of which about 540 (0.36%) showed an effect of 50% or more. Some of the results follow.
# Tested on: Plasmodium falciparum
# Assay: Primary screen in NF54 nanoGlo assay, in single point, at 2uM, 72h; a lower Z score goes with more inhibition
# Format: functional, Erythrocyte
# Conditions: timepoint 72 hour
SMILES,% Inhibition [%],Z score
COc1cc(CN2C[C@@H]3CC[C@H]2CN(C(=O)c2ccncc2)C3)ccc1F,-8,1.47
CCCN1C(=O)N[C@@H](CC(=O)N(C)CCc2c(C)n[nH]c2C)C1=O,-3,0.54
O=C(NCc1cncc(N2CCCC2=O)c1)c1cncc(Br)c1,-8,1.47
CC(C)CN1CCn2cc(C(=O)NCc3cccc(Br)c3)nc2C1,3,-0.51
Cc1n[nH]c(C)c1CC(=O)N1CCC2(C=Cc3ccccc3O2)CC1,-1,0.15
Cc1ccc(OCc2ncnn2C)cc1F,-13,1.21
Cc1c(C(=O)N[C@H]2CCOC2)cnn1-c1ncc2c(n1)-c1ccccc1CCC2,1,-0.19
Cc1nc([C@@H]2CCCN2S(=O)(=O)C2(C)CC2)[nH]c1C,6,-0.66
CN(CC(N)=O)Cc1cc2n(n1)CCN(Cc1ccc(-c3ccco3)cc1)C2,-11,1.51
O=C(Nc1ccc(Oc2ccccc2)cc1)O[C@@H]1CO[C@H]2[C@@H]1OC[C@@H]2NC(=O)c1ccccn1,0,0.06
[O-][S+]1CCN(Cc2ccc(F)cc2)CC1,-17,2.06
CC1CCC(CNc2cnc(C#N)cn2)CC1 (stereo not given),3,-0.41
Cc1noc(C)c1Cn1cc(C2CCCCC2)nn1,-13,1.97
Cc1nc(C(=O)NCc2cccnc2N2CCN(C)CC2)c(C)s1,-2,0.2
COC(=O)c1cnc(N(C)S(=O)(=O)c2cnn(C(C)C)c2)s1,-29,3.4
NC(=O)c1cc(O)ccc1C(F)(F)F,-1,0.1
COCCN1CCC[C@H](CNC(=O)N2CCC(c3ccccc3)CC2)C1,-6,1.1
COc1ccccc1CCNC(=O)[C@@H]1CCCN1c1nc(C)c2ccc(S(C)(=O)=O)cc2n1,2,-0.37
CCC(=O)c1cccc(S(=O)(=O)N2CCN(Cc3c(C)nc4n3CCCC4)CC2)c1,-8,0.8
CC(C)(C)C[C@H](NCc1ccncc1)c1cccnc1,-1,0.14
COc1ccc(C2=NO[C@](CC(=O)Nc3ccccc3)(C(=O)O)C2)cc1,-27,3.17
CCc1nc(-c2ccccc2)nc(N2CCN(C(=O)c3ccc(F)cc3)CC2)c1Cc1cccc(Cl)c1,-4,0.43

SMILES,% Inhibition [%],Z score
Cc1ccc(S(=O)(=O)Nc2ccc(N3CCN(Cc4ccc(F)cc4F)CC3)nc2)cc1,1,-0.22
CC(C)c1nc(CN(C)[C@@H](C)C(=O)Nc2nccs2)cs1,30,-3.93
N#CCCn1ncc2c(N3CCO[C@H](c4ccccc4)C3)ncnc21,8,-1.07
COCCCn1c(-c2ccccn2)nnc1N1CC[C@H](C2CCOCC2)C1,7,-0.77
C#CCNC(=O)C1C2CCC(C2)N1C(=O)c1ccccc1 (stereo not given),6,-0.88
O=C(c1ccccc1)N1CC(COc2ccccc2)OC(c2ccc(Cl)cc2Cl)O1 (stereo not given),-12,1.31
CC(C)[C@@]1(O)CN(S(=O)(=O)N(C)Cc2ccccc2)C[C@@H]1C,-9,1.74
CC(=O)N1CCc2ccc(NC(=O)c3c(-c4ccccc4Cl)noc3C)cc21,-13,2.21
O=C1CCCc2nc(NC(=O)c3cccc4c3CCCC4)ccc21,-11,1.42
C[C@@H](CNc1ccccc1)NC(=O)c1cccn1C,-7,0.63
CCN(C(=O)NCCCN(C)c1ccccc1)[C@H]1COC[C@@H]1O,-12,1.13
c1cc(N2CCCN(c3ccnc(C4CC4)n3)CC2)nc(C2CC2)n1,-43,5.02
CN(Cc1ccsc1)C(=O)NCCc1cccs1,-12,1.12
CCCc1noc(C(C)N(C)CC2CCN(CC(C)O)CC2)n1 (stereo not given),2,-0.15
Cc1nc(CNC(=O)[C@H]2CCN(c3ccc(C(F)(F)F)cn3)C2)no1,-3,0.45
CCn1cc(Br)c(=O)c(NC(=O)N2CCN(C(C)(C)CC)CC2)c1,0,-0.04
CC(C)CCNC(=O)[C@@]12CCCC=C1N(C1CCCC1)C(=O)CC2,-15,1.48
Cc1ccccc1[C@H]1CN(C(=O)c2c(C)nn(C)c2C)C[C@@H]1C(=O)O,-10,2.19
COc1cccc(NC(=O)NC(C)C2CC3CCC2C3)c1 (stereo not given),-5,0.72
Cn1nc(-c2ccsc2)cc1NC(=O)NCC(F)(F)F,-16,2.78
O=C1N[C@]2(CCc3cc(Cl)ccc32)C(=O)N1Cc1ccccn1,-1,0.11
CN(C)c1ccccc1CN1CCn2c(nnc2C(F)(F)F)C1,-3,0.64

SMILES,% Inhibition [%],Z score
O=C(CO)N1CCc2[nH]nc(-c3cccc(F)c3)c2C1,-8,1.57
CC(C)CN(C[C@H]1CN(C(=O)C2CCCC2)CCO1)C(=O)c1ccccc1,-9,1.16
CC(C)CC(=O)Nc1cc(C2CC2)nn1[C@H]1CCS(=O)(=O)C1,-11,1.57
Cn1nc(-c2ccccn2)nc1CCCn1cncn1,-12,1.18
CC(C)(C)[C@H](NC(=O)c1ccc(OCc2ccc(Cl)cc2)cc1)c1nc(-c2ccccc2)no1,-6,1.05
CC1=NS(=O)(=O)N(C)C=C1C(=O)OCc1cc(F)ccc1F,-8,1.47
O=C(NCC1(c2cccc(F)c2)CCCCC1)N1CCC[C@H](O)C1,-14,2.55
CN1N=C(C(=O)N(C)C2CCCCC2)CCC1=O,-13,1.13
COCCCNC(=O)c1cn(C)c2c(c(C)nn2-c2ccc(F)cc2)c1=O,-3,0.51
Cc1ccc(C)c(Cn2nnc(C(=O)NCc3ccco3)c2N)c1,-7,0.94
C[C@H]1CN(C(=O)NCc2ccc(F)cc2)C[C@@H]1c1nc(-c2cccnc2)no1,-8,0.92
CC(C)C(=O)Nc1cnn(-c2ncncc2N2CCCCC2)c1,-7,0.8
CN1C[C@H](O)C[C@H]1c1nc(Cc2ccccc2)no1,2,-0.27
CC1CCCC2CCCN(C(=O)C3CCNC(=O)C3)C12 (stereo not given),-8,0.97
COc1cc(C(=O)NCC2(C)CCCCCC2)on1,-5,0.52
O=C1N[C@@H](Cc2ccccc2)C(=O)N1CCN1CCOCC1,-10,1.25
Cc1ccc(C2(CN(C)Cc3noc4c3CCCC4)CCNCC2)nc1,-5,0.49
CC(CC(=O)C(C#N)c1ccc(C(F)(F)F)cn1)c1ccccc1 (stereo not given),-1,0.08
CN(C1CCCC1)S(=O)(=O)c1ccc2c(c1)OCCCO2,-9,1.33
O=C(CCc1ccc(=O)[nH]c1)Nc1cccc(-c2ccc3c(c2)CCO3)n1,0,-0.05
COc1ncccc1C(=O)N1CCn2nc3c(c2C1)CCC3,11,-1.35
Cn1cc(CCNC(=O)N[C@H]2CCCN(c3ccccc3F)C2)cn1,-10,1.35

SMILES,% Inhibition [%],Z score
OCc1ccccc1-c1ccnc2c1CCCC2,2,-0.18
C[C@@H](CN1CCOCC1)C(=O)NCC1(CO)CCCC1,-3,0.53
O=C(NC[C@H](O)C(F)(F)F)c1cc(O)ccn1,-1,0.17
CCC(CC)n1nc(Nc2nccnc2C#N)cc1C,7,-0.97
Cc1cc(-c2cc(O)cc(CC[C@H]3CCCCN3)c2)cnc1-n1cnnc1,6,-1.11
O=C(CN1CCCCCC1)N[C@H]1CCN(Cc2ccccc2)C1,-4,0.79
c1ccc(CN2CC(c3nc(Cc4cccnc4)no3)C2)nc1,-3,0.42
C[C@H](c1nc(COCc2ccccc2)no1)C1CC1,0,0.01
NC(=O)N1CCC[C@H]1C(=O)NC1(C2CCCC2)CC1,-1,0.1
CN(Cc1ccc(Oc2ccccc2)o1)C[C@H](O)C1CC1,-4,0.65
NC(=O)c1n[nH]c2ccc(NC(=O)c3nn(-c4ccccc4)c(=O)c4ccccc34)cc12,-3,0.31
COc1ccc2c(CN3CCC(OCc4cccnc4)CC3)n[nH]c2c1,-5,0.93
CC(C)(C)[C@H]1CCN(c2nnc(CS(C)(=O)=O)n2CC2CC2)C1,-15,2.64
COCCN(CCOC)C(=O)c1nc(-c2ccccc2)nc2c1OCO2,8,-1.02
O=C(c1cc(-c2ccccc2)n[nH]1)N1CCC(N2CCc3sccc3C2)CC1,33,-5.14
Cc1nn(C(C)(C)C)c2nc(C3CC3)cc(C(=O)N(C)Cc3ccc4c(c3)OCO4)c12,-1,0.15
CCC[C@H](C)N1CCC(n2cc(CN3CCCCCC3)nn2)CC1,-14,1.96
COc1ccc(-c2cn(CCN3CCc4ccccc43)nn2)cn1,-7,0.93
Cc1cccc2c1OCC[C@@H]2NC(=O)c1ccc(-c2ncn[nH]2)cc1,-5,0.87

# — ChEMBL document CHEMBL4888484, “Replenishing the malaria drug discovery pipeline: Screening and hit evaluation of the MMV Hit Generation Library 1 (HGL1) against asexual blood stage Plasmodium falciparum ,using a nano luciferase reporter read-out” (2022)
